Assay results taken from the supplement of paper PMC10126150.
Values marked as one replicate rest on one cluster of the flow cell; about a third of the high ones do not repeat.

The sequences below were run on ATP (assay: switch fluorescence ratio, 500 uM ATP over buffer (Cy3 cluster intensity, sum of 5 cycles each) (fold (ratio)); higher = stronger signal-on switching upon ATP binding; sequences stand for … in TCGTCGGCAGCGTCAGATGTGTATAAGAGACAGTTTTTTTTTTTTTTTTTTTTTTTTT…TC). Settings: aptamer strand: ATP DNA aptamer (quencher-CACCTGGGGGAGTATTGCGGAGGAAGG + anchor), 100 nM annealed; ATP concentration: 500 uM; one replicate.
Summary of the method: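 Per cluster, summed Cy3 intensity from the target cycles was divided by that from the buffer cycles to give the fluorescence ratio, then averaged per switch-domain sequence. Clusters outside 100-1000 RFU were excluded. The Cy3-labelled switching-strand clusters, on a modified Illumina MiSeq flow-cell, were annealed to 100 nM quencher-labelled ATP aptamer and imaged in selection buffer, then after 15 min with 500 uM ATP at 22 °C, for five cycles with NaOH stripping and re-annealing between them.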
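Note: ATP exposure 15 min at 22 °C before imaging.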

| Sequence | switch fluorescence ratio |
| --- | --- |
| GTAGAGCCTT | 0.973 |
| GTAGAGTGTT | 0.982 |
| GTAGATGCAA | 1.01 |
| GTAGATTGGT | 0.97 |
| GTAGGAAGAA | 1.01 |
| GTAGGGAGTA | 1 |
| GTAGGGAGTC | 1 |
| GTAGGGTTCT | 1.25 |
| GTAGGGTTGC | 1.02 |
| GTAGTACTGT | 1.04 |
| GTAGTAGCAG | 1 |
| GTAGTAGGAT | 0.968 |
| GTAGTATACA | 0.992 |
| GTAGTGAGGC | 1.07 |
| GTAGTTGGGA | 0.961 |
| GTAGTTTGGG | 0.985 |
| GTATAAGATG | 0.968 |
| GTATAATAGG | 0.994 |
| GTATACTCTC | 1.04 |
| GTATAGAATG | 1.05 |
| GTATAGATAC | 1.04 |
| GTATAGGAGG | 0.979 |

| Sequence | switch fluorescence ratio |
| --- | --- |
| GTATAGGGAG | 1.03 |
| GTATATAATA | 1.02 |
| GTATATGGGG | 0.936 |
| GTATCAACAC | 1.03 |
| GTATCACTGC | 1.05 |
| GTATCAGAGA | 0.995 |
| GTATCCACTG | 0.988 |
| GTATCGGATG | 0.931 |
| GTATGCATTA | 1.04 |
| GTATGCGCAC | 1.06 |
| GTATGGAGT | 0.95 |
| GTATGGGG | 1.01 |
| GTATGTAGCT | 0.967 |
| GTATGTCCTG | 0.891 |
| GTATTAACGA | 1.05 |
| GTATTACGT | 0.958 |
| GTATTCCGAG | 1.12 |
| GTATTCTACG | 0.872 |
| GTATTGAGGA | 0.98 |
| GTATTGATGC | 1.03 |
| GTATTGGCGG | 1.02 |
| GTATTGTCAT | 0.979 |

| Sequence | switch fluorescence ratio |
| --- | --- |
| GTATTTAATC | 1.02 |
| GTATTTCTGG | 0.97 |
| GTATTTGACA | 1.13 |
| GTATTTTCAA | 0.998 |
| GTCAAAGTAG | 1 |
| GTCAAATCTT | 1.03 |
| GTCAACGAAG | 0.984 |
| GTCAACGCGC | 1.05 |
| GTCAAGTGAG | 1.03 |
| GTCAATGGGT | 1.08 |
| GTCACACCAT | 1.03 |
| GTCACAGGAG | 1.13 |
| GTCACATGAA | 1.01 |
| GTCACCCGGG | 1.07 |
| GTCACGGCTG | 1.05 |
| GTCACTGGGT | 0.989 |
| GTCAGCATAT | 1.32 |
| GTCAGGAGTA | 0.965 |
| GTCAGGGGAG | 0.93 |
| GTCAGGGGT | 1.11 |
| GTCAGTAATG | 0.973 |
| GTCAGTCGGT | 0.994 |

| Sequence | switch fluorescence ratio |
| --- | --- |
| GTCATATATT | 0.989 |
| GTCATATTGT | 1 |
| GTCATCAACT | 1.01 |
| GTCATCAGGC | 1.05 |
| GTCATCCTTT | 0.964 |
| GTCATGCCCG | 0.96 |
| GTCCCAAACG | 1.05 |
| GTCCCGGCGC | 1.08 |
| GTCCCTGGGC | 0.986 |
| GTCCGCGGCT | 1.03 |
| GTCCGGGCTT | 1.03 |
| GTCCGGTAAC | 1.76 |
| GTCCGTCTCA | 0.995 |
| GTCCTCGGA | 1.05 |
| GTCCTGATCA | 1.01 |
| GTCCTGCGGT | 0.997 |
| GTCCTGTCAC | 1.01 |
| GTCCTTCCCA | 1.27 |
| GTCCTTGTTG | 0.994 |
